B1: AB200-R1a-Fab_Vk28 (antibody)
heavy: QVQLVQSGAEVKKPGSSVKVSCKASGGTFSNYWMHWVRQAPGQGLEWMGATYRGHSDTYYNQKFKGRVTITADKSTSTAYMELSSLRSEDTAVYYCARGAIYHGYDVLDNWGQGTLVTVSSASTKGPSVFPLAPSSKSTSGGTAALGCLVKDYFPEPVTVSWNSGALTSGVHTFPAVLQSSGLYSLSSVVTVPSSSLGTQTYICNVNHKPSNTKVDKKVEPKSC
light: DIQMTQSPSSLSASVGDRVTITCSASQDISNFLNWYQQKPGKAPKLLIYYTSNMHSGVPSRFSGSGSGTDFTLTISSLQPEDFATYYCQQYRSLPWTFGQGTKLEIKRTVAAPSVFIFPPSDEQLKSGTASVVCLLNNFYPREAKVQWKVDNALQSGNSQESVTEQDSKDSTYSLSSTLTLSKADYEKHKVYACEVTHQGLSSPVTKSFNRGEC
B2: AB200-R1a-Fab_Vk31 (antibody)
heavy: QVQLVQSGAEVKKPGSSVKVSCKASGGTFSNYWMHWVRQAPGQGLEWMGATYRGHSDTYYNQKFKGRVTITADKSTSTAYMELSSLRSEDTAVYYCARGAIYHGYDVLDNWGQGTLVTVSSASTKGPSVFPLAPSSKSTSGGTAALGCLVKDYFPEPVTVSWNSGALTSGVHTFPAVLQSSGLYSLSSVVTVPSSSLGTQTYICNVNHKPSNTKVDKKVEPKSC
light: DIQMTQSPSSLSASVGDRVTITCSASQDISNYLNWYQQKPGKAPKLLIYYTSNIHIGVPSRFSGSGSGTDFTLTISSLQPEDFATYYCQQYRKLPWSFGQGTKLEIKRTVAAPSVFIFPPSDEQLKSGTASVVCLLNNFYPREAKVQWKVDNALQSGNSQESVTEQDSKDSTYSLSSTLTLSKADYEKHKVYACEVTHQGLSSPVTKSFNRGEC
B3: AB200-R1a-Fab_Vk34 (antibody)
heavy: QVQLVQSGAEVKKPGSSVKVSCKASGGTFSNYWMHWVRQAPGQGLEWMGATYRGHSDTYYNQKFKGRVTITADKSTSTAYMELSSLRSEDTAVYYCARGAIYHGYDVLDNWGQGTLVTVSSASTKGPSVFPLAPSSKSTSGGTAALGCLVKDYFPEPVTVSWNSGALTSGVHTFPAVLQSSGLYSLSSVVTVPSSSLGTQTYICNVNHKPSNTKVDKKVEPKSC
light: DIQMTQSPSSLSASVGDRVTITCSASHDISNYLNWYQQKPGKAPKLLIYYTSNLHSGVPSRFSGSGSGTDFTLTISSLQPEDFATYYCHEYRKLPWTFGQGTKLEIKRTVAAPSVFIFPPSDEQLKSGTASVVCLLNNFYPREAKVQWKVDNALQSGNSQESVTEQDSKDSTYSLSSTLTLSKADYEKHKVYACEVTHQGLSSPVTKSFNRGEC
B4: AB200-R1a-Fab_Vk1 (antibody)
heavy: QVQLVQSGAEVKKPGSSVKVSCKASGGTFSNYWMHWVRQAPGQGLEWMGATYRGHSDTYYNQKFKGRVTITADKSTSTAYMELSSLRSEDTAVYYCARGAIYHGYDVLDNWGQGTLVTVSSASTKGPSVFPLAPSSKSTSGGTAALGCLVKDYFPEPVTVSWNSGALTSGVHTFPAVLQSSGLYSLSSVVTVPSSSLGTQTYICNVNHKPSNTKVDKKVEPKSC
light: DIQMTQSPSSLSASVGDRVTITCRASQDISSYLNWYQQKPGKAPKLLIYYTSNIHSGVPSRFSGSGSGTDFTLTISSLQPEDFATYYCQQYRKLPWTFGQGTKLEIKRTVAAPSVFIFPPSDEQLKSGTASVVCLLNNFYPREAKVQWKVDNALQSGNSQESVTEQDSKDSTYSLSSTLTLSKADYEKHKVYACEVTHQGLSSPVTKSFNRGEC
B5: AB200-R1a-Fab_Vk30 (antibody)
heavy: QVQLVQSGAEVKKPGSSVKVSCKASGGTFSNYWMHWVRQAPGQGLEWMGATYRGHSDTYYNQKFKGRVTITADKSTSTAYMELSSLRSEDTAVYYCARGAIYHGYDVLDNWGQGTLVTVSSASTKGPSVFPLAPSSKSTSGGTAALGCLVKDYFPEPVTVSWNSGALTSGVHTFPAVLQSSGLYSLSSVVTVPSSSLGTQTYICNVNHKPSNTKVDKKVEPKSC
light: DIQMTQSPSSLSASVGDRVTITCTASQSISNYINWYQQKPGKAPKLLIYYTSNLHSGVPSRFSGSGSGTDFTLTISSLQPEDFATYYCQQYRKLPWTFGQGTKLEIKRTVAAPSVFIFPPSDEQLKSGTASVVCLLNNFYPREAKVQWKVDNALQSGNSQESVTEQDSKDSTYSLSSTLTLSKADYEKHKVYACEVTHQGLSSPVTKSFNRGEC
B6: AB200-R1a-Fab_Vk32 (antibody)
heavy: QVQLVQSGAEVKKPGSSVKVSCKASGGTFSNYWMHWVRQAPGQGLEWMGATYRGHSDTYYNQKFKGRVTITADKSTSTAYMELSSLRSEDTAVYYCARGAIYHGYDVLDNWGQGTLVTVSSASTKGPSVFPLAPSSKSTSGGTAALGCLVKDYFPEPVTVSWNSGALTSGVHTFPAVLQSSGLYSLSSVVTVPSSSLGTQTYICNVNHKPSNTKVDKKVEPKSC
light: DIQMTQSPSSLSASVGDRVTITCSASQDLSNYLNWYQQKPGKAPKLLIYYTSSLHSGVPSRFSGSGSGTDFTLTISSLQPEDFATYYCQQYRKTPWTFGQGTKLEIKRTVAAPSVFIFPPSDEQLKSGTASVVCLLNNFYPREAKVQWKVDNALQSGNSQESVTEQDSKDSTYSLSSTLTLSKADYEKHKVYACEVTHQGLSSPVTKSFNRGEC
B7: AB200-R1a-Fab(hCDR2) (antibody)
heavy: QVQLVQSGAEVKKPGSSVKVSCKASGGTFSNYWMHWVRQAPGQGLEWMGATYRGHSDTYYNQKFKGRVTITADKSTSTAYMELSSLRSEDTAVYYCARGAIYHGYDVLDNWGQGTLVTVSSASTKGPSVFPLAPSSKSTSGGTAALGCLVKDYFPEPVTVSWNSGALTSGVHTFPAVLQSSGLYSLSSVVTVPSSSLGTQTYICNVNHKPSNTKVDKKVEPKSC
light: DIQMTQSPSSLSASVGDRVTITCSASQDISNYLNWYQQKPGKAPKLLIYAASSLQSGVPSRFSGSGSGTDFTLTISSLQPEDFATYYCQQYRKLPWTFGQGTKLEIKRTVAAPSVFIFPPSDEQLKSGTASVVCLLNNFYPREAKVQWKVDNALQSGNSQESVTEQDSKDSTYSLSSTLTLSKADYEKHKVYACEVTHQGLSSPVTKSFNRGEC
B8: AB200-R1a-Fab_Vk29 (antibody)
heavy: QVQLVQSGAEVKKPGSSVKVSCKASGGTFSNYWMHWVRQAPGQGLEWMGATYRGHSDTYYNQKFKGRVTITADKSTSTAYMELSSLRSEDTAVYYCARGAIYHGYDVLDNWGQGTLVTVSSASTKGPSVFPLAPSSKSTSGGTAALGCLVKDYFPEPVTVSWNSGALTSGVHTFPAVLQSSGLYSLSSVVTVPSSSLGTQTYICNVNHKPSNTKVDKKVEPKSC
light: DIQMTQSPSSLSASVGDRVTITCSASHDVSNYLNWYQQKPGKAPKLLIYYTSNLHSGVPSRFSGSGSGTDFTLTISSLQPEDFATYYCQQYRRLPWTFGQGTKLEIKRTVAAPSVFIFPPSDEQLKSGTASVVCLLNNFYPREAKVQWKVDNALQSGNSQESVTEQDSKDSTYSLSSTLTLSKADYEKHKVYACEVTHQGLSSPVTKSFNRGEC
B9: AB200-R1a-Fab_Vk35 (antibody)
heavy: QVQLVQSGAEVKKPGSSVKVSCKASGGTFSNYWMHWVRQAPGQGLEWMGATYRGHSDTYYNQKFKGRVTITADKSTSTAYMELSSLRSEDTAVYYCARGAIYHGYDVLDNWGQGTLVTVSSASTKGPSVFPLAPSSKSTSGGTAALGCLVKDYFPEPVTVSWNSGALTSGVHTFPAVLQSSGLYSLSSVVTVPSSSLGTQTYICNVNHKPSNTKVDKKVEPKSC
light: DIQMTQSPSSLSASVGDRVTITCSASQDLSNYLNWYQQKPGKAPKLLIYYTSNLHSGVPSRFSGSGSGTDFTLTISSLQPEDFATYYCQQYKKIPWTFGQGTKLEIKRTVAAPSVFIFPPSDEQLKSGTASVVCLLNNFYPREAKVQWKVDNALQSGNSQESVTEQDSKDSTYSLSSTLTLSKADYEKHKVYACEVTHQGLSSPVTKSFNRGEC
B10: AB200-R1a-Fab_Vk36 (antibody)
heavy: QVQLVQSGAEVKKPGSSVKVSCKASGGTFSNYWMHWVRQAPGQGLEWMGATYRGHSDTYYNQKFKGRVTITADKSTSTAYMELSSLRSEDTAVYYCARGAIYHGYDVLDNWGQGTLVTVSSASTKGPSVFPLAPSSKSTSGGTAALGCLVKDYFPEPVTVSWNSGALTSGVHTFPAVLQSSGLYSLSSVVTVPSSSLGTQTYICNVNHKPSNTKVDKKVEPKSC
light: DIQMTQSPSSLSASVGDRVTITCSASQDLSNYLNWYQQKPGKAPKLLIYYTSNLQSGVPSRFSGSGSGTDFTLTISSLQPEDFATYYCQQYRRLPWTFGQGTKLEIKRTVAAPSVFIFPPSDEQLKSGTASVVCLLNNFYPREAKVQWKVDNALQSGNSQESVTEQDSKDSTYSLSSTLTLSKADYEKHKVYACEVTHQGLSSPVTKSFNRGEC
B11: AB200-R1a-Fab(hCDR1) (antibody)
heavy: QVQLVQSGAEVKKPGSSVKVSCKASGGTFSNYWMHWVRQAPGQGLEWMGATYRGHSDTYYNQKFKGRVTITADKSTSTAYMELSSLRSEDTAVYYCARGAIYHGYDVLDNWGQGTLVTVSSASTKGPSVFPLAPSSKSTSGGTAALGCLVKDYFPEPVTVSWNSGALTSGVHTFPAVLQSSGLYSLSSVVTVPSSSLGTQTYICNVNHKPSNTKVDKKVEPKSC
light: DIQMTQSPSSLSASVGDRVTITCRASQSISSYLNWYQQKPGKAPKLLIYYTSNLHSGVPSRFSGSGSGTDFTLTISSLQPEDFATYYCQQYRKLPWTFGQGTKLEIKRTVAAPSVFIFPPSDEQLKSGTASVVCLLNNFYPREAKVQWKVDNALQSGNSQESVTEQDSKDSTYSLSSTLTLSKADYEKHKVYACEVTHQGLSSPVTKSFNRGEC
B12: AB200-R1a-Fab_Vk33 (antibody)
heavy: QVQLVQSGAEVKKPGSSVKVSCKASGGTFSNYWMHWVRQAPGQGLEWMGATYRGHSDTYYNQKFKGRVTITADKSTSTAYMELSSLRSEDTAVYYCARGAIYHGYDVLDNWGQGTLVTVSSASTKGPSVFPLAPSSKSTSGGTAALGCLVKDYFPEPVTVSWNSGALTSGVHTFPAVLQSSGLYSLSSVVTVPSSSLGTQTYICNVNHKPSNTKVDKKVEPKSC
light: DIQMTQSPSSLSASVGDRVTITCSASQDISSYLNWYQQKPGKAPKLLIYFTSNLHSGVPSRFSGSGSGTDFTLTISSLQPEDFATYYCQQSRKLPWTFGQGTKLEIKRTVAAPSVFIFPPSDEQLKSGTASVVCLLNNFYPREAKVQWKVDNALQSGNSQESVTEQDSKDSTYSLSSTLTLSKADYEKHKVYACEVTHQGLSSPVTKSFNRGEC

For twelve molecules, Tm results are on record in patent publication US12043670B2, “Anti-BCMA antibody-drug conjugates and methods of use” (Eisai R&D Management Co., Ltd., priority 2020, dated 2024).

A short description of the data set: ThermoFluor thermostability (Tm). It is filed as physicochemical. As to conditions: Light chain screening Round 1; Fab, paired with heavy chain AB200_D99H.
Take B1: the Tm turned out to be 81.80 °C.
Consider B2, for which the Tm is 81.68 °C.
In the case of B3 it was 76.90 °C; in that of B4, 82.67 °C.
In the case of B5 it was 82.50 °C.
In the case of B6 it was 79.68 °C; in that of B7, 84.86 °C.
Regarding B8, the Tm stood at 82.79 °C.
In the case of B9 it was 82.69 °C; in that of B10, 81.26 °C; in that of B11, 82.81 °C.
Consider B12, for which the Tm is 85.36 °C.
